Results from publication PMC4336329 (PLoS ONE, 2015).
In all, about 310,000 compounds went through this assay and about 14,000 (4.5%) showed an effect of 50% or more. Effects have a minus sign here. The list shows a part of the results.

target: human ether-à-go-go-related gene (hERG) potassium channel (human, UniProt Q12809); experiment: primary screen, population patch clamp on CHO cells stably expressing hERG
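Also: peak tail current of the secondary pulse compared with the same well before compound.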

human ether-à-go-go-related gene (hERG) potassium channel, sequence (Q12809 whole entry, looked up): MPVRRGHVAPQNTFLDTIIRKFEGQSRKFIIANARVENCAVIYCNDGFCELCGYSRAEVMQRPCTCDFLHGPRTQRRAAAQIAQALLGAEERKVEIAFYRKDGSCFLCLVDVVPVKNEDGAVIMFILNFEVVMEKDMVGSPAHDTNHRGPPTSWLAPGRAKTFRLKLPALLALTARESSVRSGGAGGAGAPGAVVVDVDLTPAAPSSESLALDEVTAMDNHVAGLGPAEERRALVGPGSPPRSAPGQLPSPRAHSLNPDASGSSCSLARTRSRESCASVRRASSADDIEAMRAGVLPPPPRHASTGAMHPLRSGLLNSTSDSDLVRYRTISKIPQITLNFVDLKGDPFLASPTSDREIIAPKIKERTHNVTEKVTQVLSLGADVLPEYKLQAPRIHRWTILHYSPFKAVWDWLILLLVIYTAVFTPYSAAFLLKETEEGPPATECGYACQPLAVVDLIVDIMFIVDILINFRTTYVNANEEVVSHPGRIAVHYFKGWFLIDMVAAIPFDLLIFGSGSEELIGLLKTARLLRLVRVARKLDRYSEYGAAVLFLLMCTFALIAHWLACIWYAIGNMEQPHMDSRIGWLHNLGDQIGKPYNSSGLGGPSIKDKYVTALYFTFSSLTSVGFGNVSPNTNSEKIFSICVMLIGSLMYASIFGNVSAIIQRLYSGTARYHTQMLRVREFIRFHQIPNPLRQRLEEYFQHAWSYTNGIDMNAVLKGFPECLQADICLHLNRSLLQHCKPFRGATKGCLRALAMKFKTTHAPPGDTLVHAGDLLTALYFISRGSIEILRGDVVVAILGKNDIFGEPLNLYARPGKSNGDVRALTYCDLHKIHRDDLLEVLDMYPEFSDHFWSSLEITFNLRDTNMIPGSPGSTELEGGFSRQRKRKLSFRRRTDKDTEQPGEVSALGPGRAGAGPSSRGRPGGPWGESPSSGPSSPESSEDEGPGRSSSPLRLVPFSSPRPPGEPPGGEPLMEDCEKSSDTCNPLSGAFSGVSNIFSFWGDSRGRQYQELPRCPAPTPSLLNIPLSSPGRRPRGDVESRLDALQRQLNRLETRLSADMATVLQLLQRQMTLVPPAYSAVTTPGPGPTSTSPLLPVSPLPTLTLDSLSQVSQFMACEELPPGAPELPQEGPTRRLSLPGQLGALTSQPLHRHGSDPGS

Row | SMILES | hERG current change (%, negative = inhibition) at 10uM
1 | COc1ccc(Cc2nc(-c3ccccn3)no2)cc1 | -10.3%
2 | Cc1ccc(S(=O)(=O)NC(=O)Nc2c(C)n(C)n(-c3ccccc3)c2=O)cc1 | 3.33%
3 | Cc1ccc(S(=O)(=O)N2[C@@H](c3ccc(F)cc3)C(C(=O)O)=CC[C@H]2c2cccs2)cc1 | -1.43%
4 | O=C(CN1C(=O)C2CCCCC2C1=O)Nc1ccc(OC(F)F)c(Cl)c1 (centres unmarked) | -2.68%
5 | COCCNc1nc(-c2cc(C)c(C)cc2C)cs1.Cl | -17.3%
6 | O=C(Nc1ncccn1)C12CC3CC(CC(C3)C1)C2 | 5.07%
7 | O=C(Nc1nnc(Cc2ccccc2F)s1)Nc1ccccc1F | 17%
8 | CN(C)S(=O)(=O)c1ccc(N2CCCC2)c(C(=O)NC(c2ccccc2)c2ccccc2)c1 | 6.73%
9 | Cc1cccc(NS(=O)(=O)c2ccc(C(=O)NCC(C)(C)N3CCOCC3)cc2)c1C | -33.8%
10 | COc1ccc(CC(=O)Nc2ccccc2C(=O)N2CCOCC2)cc1 | 13.6%
11 | Cc1ccccc1N1C(=O)c2sc3nc4c(c(=O)n3c2C1=O)CCC4 | -7.23%
12 | CCCOc1ccc(/C=C2\SC(=S)N(CC3CCCO3)C2=O)cc1 (centres unmarked) | 16.9%
13 | COC(=O)[C@@]12CCCCN1[C@H](c1ccc(-c3cccc(Cl)c3)c(OC)c1)[C@@H]1C(=O)N(C)C(=O)[C@@H]12.O=C(O)C(F)(F)F | 22%
14 | Cc1ccc(C(=O)OCC(=O)Nc2ccc(S(N)(=O)=O)cc2)c(O)c1 | 5.87%
15 | Oc1ccc(-c2[nH]ncc2-c2nc3ccccc3s2)c(O)c1 | 23.5%
16 | CCOC(=O)CCC(=O)N(CCN(C(=O)CCC(=O)OCC)c1ccccc1)c1ccccc1 | 1.97%
17 | COc1ccc(/C=C/C(=O)NC(=S)Nc2ccccc2)cc1OC | 4.21%
18 | CC(=O)c1cc(-c2ccccc2)n(CCC(=O)NC2CCCCC2)c1C | 5.92%
19 | O=C(NCCCNC(=O)c1ccco1)c1ccc(F)cc1 | 10.4%
20 | CC(C)(C)c1ccc(-c2noc(CNC(=O)c3ccco3)n2)cc1 | -8.2%
21 | O=C(Nc1ncn[nH]1)c1ccc(Cl)c(S(=O)(=O)Nc2ccc(Cl)cc2)c1 | 1.55%
22 | COc1ccc(Cl)cc1-c1n[nH]c(=S)n1C1CCCCC1 | 9.11%
23 | CCC1=[N+](CC(=O)c2ccc(C)cc2)CCn2c(C)ccc21.[Br-] | -3.75%

Row | SMILES | hERG current change (%, negative = inhibition) at 10uM
24 | NS(=O)(=O)c1cccc(NC(=O)COC(=O)C2CCCCC2)c1 | 4.42%
25 | O=C(Cc1c(F)cccc1Cl)Nc1ccccc1-c1ccccc1 | 3.51%
26 | Cc1ccc(-n2ncc3c(NCC4CCCO4)ncnc32)c(C)c1 (centres unmarked) | 12.9%
27 | CC(=O)c1cccc(Oc2ncccn2)c1 | 27.7%
28 | COc1cccc(-c2nc3cc(C)ccc3o2)c1 | 15.2%
29 | O=C(/C=C/c1cccs1)NC(=S)Nc1ccc(C(=O)O)cc1 | 6.78%
30 | O=C(O)c1[nH]c(=O)[nH]c(=O)c1F | 19.6%
31 | CCCC(C)C(=O)Nc1ccc2c(c1)OCCO2 (centres unmarked) | -3.74%
32 | O=C(O)c1ccccc1C(=O)OCCc1cc2ccccc2c(=O)o1 | 10.4%
33 | O=C(CC1C(=O)NCCN1Cc1c(F)cccc1Cl)NCc1ccccc1 (centres unmarked) | 17.1%
34 | Cc1ccccc1-c1nnc(SCC(=O)NCC2CCCO2)o1 (centres unmarked) | 5.02%
35 | CCCC(=O)N1CCc2cc(OC)c(OC)cc2C1c1cc2cc3c(cc2[nH]c1=O)OCO3 (centres unmarked) | -0.887%
36 | CCc1ccc(C(c2ccc(CC)cc2)C(Cl)Cl)cc1 | 21.3%
37 | CC1CC[C@@]2(OC1)O[C@H]1CC3[C@@H]4C[C@@H](O)[C@@]5(O)C[C@@H](O)[C@H](O)C[C@]5(C)[C@H]4CC[C@]3(C)[C@H]1[C@@H]2C (some centres unmarked) | 8.38%
38 | Cc1ccc(-c2noc(CSc3nnnn3-c3ccccc3)n2)cc1 | 17.6%
39 | COc1ccc(OC)c(S(=O)(=O)N2CCC(C(=O)N3CCN(Cc4ccccc4)CC3)CC2)c1 | -4.4%
40 | O=C(NCc1ccccc1)N1CCN(c2ccccc2F)CC1 | 1.22%
41 | CCN(CCCNC(=O)COc1cc(=O)n(C)c2ccccc12)c1cccc(C)c1 | -51%
42 | CCOc1ccccc1NC(=O)CN(C)S(=O)(=O)c1cnc[nH]1 | 28.4%
43 | Clc1nc(-c2ccccc2)cc(-c2ccc(Br)cc2)n1 | -32.2%
44 | OCCN1CCOCCN(CCO)CCN(CCO)CC1 | 3.8%
45 | COc1ccc(-n2c(C)cc(C(=O)CN3CCC(C)CC3)c2C)cc1 | -21%
46 | COc1ccccc1C(=O)NNC(=O)c1ccc2ccccc2c1 | -22.9%

Row | SMILES | hERG current change (%, negative = inhibition) at 10uM
47 | CCn1c(SCc2nc3ccccc3c(=O)[nH]2)nnc1-c1ccncc1 | -11.7%
48 | CC(=O)NC(CC(=O)N1CCN(C(C)=O)CC1)c1ccccc1 (centres unmarked) | 27%
49 | CN1CCN(c2ccc(C(F)(F)F)cc2N)CC1 | -5.95%
50 | CCOC(=O)c1cccc(NC(=O)CN2C(=O)C3CC=CCC3C2=O)c1 (centres unmarked) | -42.6%
51 | COc1ccc2[nH]cc(CCCN3C(=O)c4ccccc4C3=O)c2c1 | -4.87%
52 | CN(CC(=O)Nc1ccccc1Br)C(=O)Cn1[nH]c(=O)c2ccccc2c1=O | 9.43%
53 | COC(=O)Cn1nc(-c2ccccc2)c2ccccc21 | 4.12%
54 | Cc1nnc(SCC(=O)c2c(N)n(C)c(=O)n(C)c2=O)n1Cc1ccccc1 | 13.6%
55 | CCCCn1c(=O)c(C(=O)Nc2ncccc2C)c(O)c2ccccc21 | 14.6%
56 | Cn1c(CN2CCCCC2)nc2cc(NC(=O)c3cccs3)ccc21 | -31.2%
57 | COc1ccc(NS(=O)(=O)c2cc(NC(=O)CNC(=O)c3ccc(C)s3)ccc2Cl)cc1 | -6.77%
58 | CCOC(=O)C1=C(O)/C(=C\c2cccc(OC)c2)N=C1C | -2.93%
59 | C=CCn1cn[nH]c1=S | 22.9%
60 | C/C(=N\Nc1cc(-c2ccccc2)nc(-c2ccccc2)n1)c1ccc(O)c(C)c1 | 4.51%
61 | CCc1ccccc1NC(=O)c1ccc(-n2c(C)ccc2C)cc1 | -12.1%
62 | CCN(CC)C(=O)CSc1nc(-c2ccc(C)cc2)nc2c1COC(C)(C)C2 | -14.2%
63 | COc1ccc(Cl)cc1NC(=O)CSc1nnc(Cn2c(=O)sc3ccccc32)n1C | -35.7%
64 | COc1ccc(C(=O)Nc2ccc3ccccc3c2)c(OC)c1 | 17.6%
65 | Cc1nc(N)c(Cc2ccc(Cl)cc2Cl)c(N)n1 | 18.8%
66 | CC12CCC(=O)N1C(C(=O)Nc1cc(S(=O)(=O)N3CCCCCC3)ccc1OCC(F)(F)F)CS2 (centres unmarked) | -44.1%
67 | O=C(OCC(=O)C12CC3CC(CC(C3)C1)C2)c1cccnc1Cl | 19.1%
68 | Cc1ccc(Cl)cc1N1CCN(C(=O)CCCn2c(=O)c3cccn3c3cccnc32)CC1 | -15.1%
69 | O=C(OCC(=O)N1CCc2ccccc21)C1=COCCO1 | 6.94%

Row | SMILES | hERG current change (%, negative = inhibition) at 10uM
70 | O=C(CCNC(=O)C1CCN(S(=O)(=O)c2ccc(F)cc2)CC1)Nc1ccccc1 | 7.44%
71 | COc1ccc(C)cc1NC(=O)NNC(=O)C(C)Oc1ccc(F)cc1Cl (centres unmarked) | -22.4%
72 | O=C(COc1ccccc1-c1ccccc1)NNC(=O)NC1CCCCC1 | -42.8%
73 | COc1ccc(C(=O)CN2CCOCC2)cc1F.Cl | 13.8%
74 | CCCCn1c(SCC(=O)Nc2cc(NC(=O)c3ccco3)ccc2C)nc2ccccc2c1=O | -8.62%
75 | N#Cc1ccccc1OCC(=O)N1CCN(S(=O)(=O)c2ccc(Cl)cc2)CC1 | -37.1%
76 | Cc1nc2ccccc2n1C(=O)N(C)C | 30.3%
77 | COc1ccc(C(=O)OCC(=O)Nc2c(C)n(C)n(-c3ccccc3)c2=O)cc1OC | 16.5%
78 | Cc1ccc2nc(CSc3nnc(Nc4ccccc4C)s3)cc(=O)n2c1 | -43%
79 | COc1cc(Br)cc2cc(C(=O)N3CCOCC3)c(=O)oc12 | -2.63%
80 | Cn1c(-c2ccc(Cl)cc2)cnc1N | 5.12%
81 | Cc1onc(-c2ccccc2Cl)c1C(=O)N1CCN(c2ncccn2)CC1 | 2.45%
82 | O=C(NC1CCc2ccccc21)c1cc(COc2c(F)cccc2F)on1 (centres unmarked) | -1.25%
83 | CCc1c(C)nc2c(-c3ccccc3)c(-c3ccccc3)[nH]n2c1=O | 15.3%
84 | COc1ccc(C(NC(C)=O)c2ccc3cccnc3c2O)c(OC)c1 (centres unmarked) | -11.4%
85 | O=C(CCN1CCN(Cc2ccccc2)CC1)Nc1ccc(OCc2ccccc2)cc1 | -45.7%
86 | COc1ccc(-c2cc3ncccc3cn2)cc1 | 1.16%
87 | Br.Nc1nc2c(s1)CCc1ccccc1-2 | 20.9%
88 | N#Cc1c(-c2ccccc2)nc(-c2ccncc2)[nH]c1=O | -71.5%
89 | COc1ccccc1-c1cc(C(F)(F)F)nc(NCc2ccco2)n1 | -0.674%
